Among the data in PubChem BioAssay AID488969 (Vanderbilt High Throughput Screening Facility, 2010) are z-score values, retold here.

Molecules are shown by their SMILES. The full ranking holds about 110,000 compounds; the median of “z-score” is about -0.1, and the highest 2% start at about 2. The list shows a part of the results.

The experiment concerns the target Metabotropic glutamate receptor 8 (Rattus norvegicus) (UniProt P70579). Description: mGluR8 Gi/Go-coupled signaling modulation – cell-based, rat, thallium flux, HTS, primary screen (AID 488969). The note with it: HEK293 rat mGluR8, GIRK (G protein-gated inwardly rectifying potassium channel) thallium flux, FluoZin2; at 10 µM; stronger effect = higher value; submaximal glutamate (EC20) added with thallium.
Chain of UniProt P70579 (P70579 whole entry, looked up): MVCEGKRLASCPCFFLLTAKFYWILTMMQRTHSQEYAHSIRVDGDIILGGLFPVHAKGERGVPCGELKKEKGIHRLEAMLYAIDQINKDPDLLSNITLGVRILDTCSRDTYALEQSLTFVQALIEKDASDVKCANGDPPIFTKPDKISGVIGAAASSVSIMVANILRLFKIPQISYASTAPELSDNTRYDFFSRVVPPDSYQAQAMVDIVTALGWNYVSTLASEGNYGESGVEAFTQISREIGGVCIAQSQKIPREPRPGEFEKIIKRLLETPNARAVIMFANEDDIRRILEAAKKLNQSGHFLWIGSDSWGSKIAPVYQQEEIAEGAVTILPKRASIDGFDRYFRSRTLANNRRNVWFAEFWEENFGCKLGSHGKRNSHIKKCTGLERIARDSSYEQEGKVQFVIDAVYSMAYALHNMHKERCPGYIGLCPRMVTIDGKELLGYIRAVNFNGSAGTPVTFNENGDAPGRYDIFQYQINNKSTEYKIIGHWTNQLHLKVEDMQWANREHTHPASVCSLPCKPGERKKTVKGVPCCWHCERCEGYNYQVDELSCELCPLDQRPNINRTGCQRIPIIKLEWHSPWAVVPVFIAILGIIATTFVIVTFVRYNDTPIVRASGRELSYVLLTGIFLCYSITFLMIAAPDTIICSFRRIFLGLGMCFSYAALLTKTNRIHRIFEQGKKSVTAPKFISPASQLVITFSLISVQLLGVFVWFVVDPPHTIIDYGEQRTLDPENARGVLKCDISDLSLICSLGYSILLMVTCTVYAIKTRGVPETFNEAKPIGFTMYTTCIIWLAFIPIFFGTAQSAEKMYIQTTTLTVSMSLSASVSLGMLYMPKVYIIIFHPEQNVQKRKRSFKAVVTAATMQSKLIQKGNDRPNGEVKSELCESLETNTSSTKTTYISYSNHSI
For the compound `CCOc1c(Cl)cc(CNC(C)(C)CC(C)(C)C)cc1OC`, the z-score is -0.232.
With `Cc1cc(C(=O)O)ccc1-n1c(C)ccc1C` the figure was 0.208; with `COc1ccc(N2CCN(Cc3nc4ccccc4n3C)CC2)cc1`, -0.258; with `COc1ccc(N=C/C=C2\C=C(c3ccccc3)OC(C)(C)O2)cc1`, -0.461.
Turning to `c1ccc(-c2nnc(N3CCN(c4ccccn4)CC3)c3ccccc23)cc1`, the z-score is -1.64.
The figure for `Cc1nnc(SCC(=O)Nc2nnc(SCc3cccc(Br)c3)s2)s1` is 0.231; for `O=c1ccn(-c2cccc(C(F)(F)F)c2)nc1-c1ccn(-c2ccccc2)n1` it is -0.401.
`COc1ccc(N2CCN(c3oc(-c4ccco4)nc3C#N)CC2)cc1` registered a z-score of -1.11.
With `CCOc1cc(/C=C2/C(=O)N(c3ccccc3)N=C2C)ccc1OC(=O)c1cccs1` the figure was -0.152.
The figure for `S=C(NCc1ccccc1Cl)NC1CCCC1` is 0.0412; for `CC(C)(C)c1ccc(C(=O)N2CCC(C(=O)NCc3ccncc3)CC2)cc1` it is -0.0266.
The figure for `c1ccc(-c2csc(N3CCOCC3)n2)cc1` is 1.33.
In the case of `COc1cc(C(=O)N[C@H](C(=O)NC(C)C23CC4CC(CC(C4)C2)C3)C(C)C)cc(OC)c1OC` (some centres undefined), the z-score is -0.125.
For `CCCCSc1nc(C)cc(SCC(=O)N/N=C/c2cccc(OC)c2O)n1`, the z-score is -0.337.
In turn, `COC(=O)c1sc(S(=O)(=O)Nc2ccc(Br)cc2)c(C(=O)OC)c1C` returned a z-score of -0.105.
The figure for `Cc1nnsc1C(=O)N/N=C/c1ccc2ccccc2c1O` is -0.567; for `CN(C)C(=O)NC(O)C(Cl)Cl` (centres undefined) it is 0.35.
With `COc1ccc2[nH]c(=O)c(CN(C(=O)c3ccccn3)c3ccccc3)cc2c1` the figure was -0.101; with `Cc1cc(SC(C)C(=O)Nc2c(C)n(C)n(-c3ccccc3)c2=O)nc2ccccc12` (centres undefined), 0.274; with `c1coc(-c2nc3nc4ccccc4n3nc2-c2ccco2)c1`, -0.582.
In turn, `CN(CC1CCCO1)S(=O)(=O)c1ccc(C(=O)Nc2nc3cc4c(cc3s2)OCO4)cc1` (centres undefined) showed a z-score of -0.166.
For `CCOC(=O)C(=O)Nc1ccccc1C(=O)NC(C)C`, the z-score was -0.286.
With `O=C(CSc1nc2ccccc2s1)CSc1nc2ccccc2s1` the figure was -0.46; with `COc1ccc(/C=C2/SC(=S)N(n3c(C)ccc3C)C2=O)cc1`, 1.14; with `Nc1c(Cl)ncnc1N/N=C/c1ccc2ccccc2n1`, 0.811.
The figure for `CCCCN(CC)Cc1ccc(CNC(=O)Nc2ccccc2)o1` is 1.09; for `NNC(=O)CSc1c(-c2cccs2)[nH]c2ccccc12` it is -0.272.
With `O=C(Nc1ccc(Cl)cn1)c1ccc(COCC(F)(F)C(F)F)o1` the figure was -0.376.
Turning to `CNc1cc(CSC)nc(SCc2ccc(Cl)cc2Cl)n1`, the z-score was -0.147.
The compound `Cc1ccc2nc(SCC(=O)Nc3ccccc3N3CCOCC3)c(C#N)cc2c1` had a z-score of -0.168.
For `COc1cccc(/C=N/Nc2ncnc(N)c2[N+](=O)[O-])c1OC`, the z-score was found to be 0.175.
The figure for `COc1ccccc1N1CCN(C(=O)CC2NC3CCCCC3NC2=O)CC1` (centres undefined) is -0.162; for `CCc1cc(C(=O)Nc2ccc(C)cc2Br)cs1` it is -1.35; for `Cc1[nH]c2ccccc2c1/C=C(\C#N)S(=O)(=O)c1ccccc1` it is -0.0303.
With `CCN(CC)CCCN1C(=O)c2oc3ccccc3c(=O)c2C1c1cccnc1` (centres undefined) the figure was 0.402; with `Cc1cc(C(=O)N2CCCCCC2)cs1`, -0.0614; with `COc1ccc(OC)c(CN2CCN(C(=O)c3cccc4ccccc34)CC2)c1`, -0.279.
With `COc1ccc(-c2cc(C(F)(F)F)nc(SCC(=O)Nc3cc(C)on3)n2)cc1` the figure was 0.357; with `CN(C(=O)COC(=O)C1CCN(S(=O)(=O)c2cccs2)CC1)C1CCS(=O)(=O)C1` (centres undefined), 0.776.
`COC(=O)c1[nH]c2cc(OC)c(OC)cc2c1NC(=O)Oc1ccccc1` showed a z-score of -0.318.
Compound `O=C1[C@@H]2C(c3ccccc3Cl)=NO[C@@H]2C(=O)N1Cc1ccccc1` yielded a z-score of 0.171.
With `OCCN(CC(O)COc1ccccc1)CC(O)Cn1ccc2ccccc21` (centres undefined) the figure was 0.0905; with `Cc1ccc(OCc2nnc(NC(=O)OCC(C)C)s2)cc1`, -0.0417.
The figure for `N#Cc1c(SCC(=O)Nc2nccs2)nc2c(c1-c1ccco1)CCCC2` is -0.0832; for `COc1ccccc1-n1c(SCC(=O)N2CCc3ccccc32)nc2c(c1=O)SCC2` it is -0.558.
The figure for `COC(=O)c1ccc(OC(=O)c2ccc(OC)c(OC)c2)c(OC)c1` is 0.0246.
Compound `COc1ccccc1NC(=O)CSc1ncn(-c2ccccc2)n1` registered a z-score of -1.05.
The compound `CCOC(=O)C1CCCN(Cc2nc(N)nc(Nc3ccccc3)n2)C1` (centres undefined) displayed a z-score of -0.746.
With `CCOC(=O)CNC(=S)N(Cc1cccs1)C1CCCC1` the figure was 0.332; with `O=C(Cn1c(-c2cscn2)nc2ccccc21)Nc1cc(F)ccc1F`, -0.259.
With `O=C1[C@@H]2Cc3ccccc3CN2C(=O)N1c1cccc(F)c1` the figure was 0.928; with `O=C(CNC(=O)c1ccc2c(c1)OCCO2)N/N=C/c1ccc(O)cc1O`, 0.225.
With `CCC(C)Sc1nc2c(c(=O)[nH]c(=O)n2C)n1CCc1ccccc1` (centres undefined) the figure was -0.196; with `c1cnc2ccc(C(c3nnnn3C3CCCCC3)N3CCN4CCCC4C3)cc2c1` (centres undefined), -1.16.
`COC(=O)C1=C(N)N(c2ccccc2C(F)(F)F)C2=C(C(=O)CCC2)C1c1ccc2c(c1)OCO2` (centres undefined): the z-score was -0.087.
`COc1cccc(N(C(=O)c2nc3nccc(C)n3n2)c2nc3ccccc3s2)c1` returned a z-score of -0.186.
`Cc1ccc(S(=O)(=O)N(C)c2ccc(OCC(=O)O)cc2)cc1` came in with a z-score of 0.0713.
With `Cc1occc1-c1nnc(SCC(=O)NC(C)(C)C)n1C(C)c1ccccc1` (centres undefined) the figure was 0.32; with `COc1ccc(-c2c(C#N)c(N)nc3c2CCCCCC3)cc1OC`, -0.576.
With `Clc1ccc(-c2cc(COc3ccc4ccccc4c3)no2)cc1` the figure was -0.057; with `Cn1c(-c2ccc(F)cc2)cnc1SCC(=O)N1CCCc2ccccc21`, -0.388.
In the case of `COc1cc(OC)cc(C(=O)N2CCC(C(=O)Nc3ccc4c(c3)OCCO4)CC2)c1`, the z-score is -0.273.
In turn, `Cc1c(O)ccc(-c2[nH]ncc2-c2nc3ccccc3s2)c1O` yielded a z-score of -0.116.
Compound `Cc1c(CN2CCC(C)CC2)c(=O)n(-c2ccccc2)n1C` returned a z-score of 0.419.
`Cc1ccccc1-c1nnc(SCC(=O)Nc2ccc3c(c2)OCCO3)n1N` displayed a z-score of 0.775.
With `COc1cccc(N=c2oc3c(C)ncc(CO)c3cc2C(N)=O)c1` the figure was -0.0525.
For the compound `Cc1noc(C)c1COc1ccc(C(=O)OCC(=O)Nc2ccc3ccccc3c2)cc1`, the z-score came out at 0.103.
With `Cc1ccc(-c2nnc3sc(-c4ccncc4)nn23)cc1` the figure was -0.701; with `O=C(NCc1cccs1)c1nc2ncccn2n1`, -0.124; with `COc1cccc(S(=O)(=O)NCc2ccc(C(=O)NCC3CCCO3)cc2)c1` (centres undefined), 0.0353.
With `Cc1ccc(CNC(=O)c2ccccc2NS(C)(=O)=O)cc1` the figure was -0.309; with `Cc1nn(CC(=O)Nc2ccccc2)c(=O)c2ccccc12`, 0.384; with `CC(=O)Nc1cc(C(=O)NCc2ccco2)ccc1Sc1ccc(Cl)cc1`, -0.105.
With `Cc1ccc(NC(=O)c2cccs2)cc1S(=O)(=O)N(C)C` the figure was -0.319; with `O=C(Nc1ccccc1Cl)c1ccccc1S(=O)(=O)c1ccccc1[N+](=O)[O-]`, -0.14; with `CC(=O)c1ccc(NC(=O)c2cc3nc4c(c(C(F)(F)F)n3n2)CCCC4)cc1`, -0.059.
In turn, `CCOc1ccc(CNC(=O)c2ccc(Sc3ccc(Cl)cc3)c(NC(C)=O)c2)cc1OC` gave a z-score of 0.0794.
With `O=C1CCCc2c1cc(C(=O)NC1CCSC1=O)c(=O)n2-c1ccccc1` (centres undefined) the figure was -0.276; with `COc1ccc(NC(=O)CN2CCCN(S(=O)(=O)c3ccc(F)cc3)CC2)cc1`, -0.00587.
Regarding `Cc1cccnc1NC1OC(=O)c2ccccc21` (centres undefined), the z-score came to 0.202.
The compound `COc1ccc2nc3sc(C(=O)NCCN4CCc5ccccc5C4)cc3cc2c1` showed a z-score of -0.0482.
With `Cc1ccc(OCCC(=O)OCC(=O)C(C)(C)C)cc1` the figure was -0.197.
With `CCc1ccc(Nc2nc(N)nc(CSc3nc4ccccc4s3)n2)cc1` the figure was -1.21; with `CC1(C)Cc2nc3nc(SCC(=O)NCCc4ccccc4)n(-c4ccccc4)c(=O)c3cc2CO1`, 0.541.
With `O=C(CN1C(=O)COc2ccccc21)NCc1ccccn1` the figure was 0.219; with `O=C(CC(Sc1n[nH]c(-c2ccccc2)n1)c1ccccc1)NCc1ccccc1` (centres undefined), -0.149; with `Cc1ccc(CC(=O)N2CC(C)OC(C)C2)cc1` (centres undefined), 0.364.
As for `CC(C)(C)c1ccc(C(=O)N2CCCN(C(=O)c3ccc(C(C)(C)C)cc3)CC2)cc1`, the z-score is -0.188.
For `Oc1ccccc1C=NC(c1ccccc1)C(O)c1ccccc1` (centres undefined), the z-score is -0.186.
With `Cc1[nH]c(=O)[nH]c(=O)c1S(=O)(=O)N1CCCC(C(=O)NCCc2ccc(Cl)cc2)C1` (centres undefined) the figure was -0.14.
With `Cn1c(=O)c2c(nc(CN3CCN(C(=O)c4ccco4)CC3)n2CCCc2ccccc2)n(C)c1=O` the figure was -0.0502.
As for `CC(C)NS(=O)(=O)c1ccc(OCC(=O)Nc2ccc3c(c2)OCCO3)cc1`, the z-score was -0.176.
With `Cc1cc(C)n2nc(C(=O)NCCc3ccccc3)nc2n1` the figure was -0.0762; with `O=C(NNC(=O)c1cc(O)c(O)c(O)c1)NC1CCCCC1`, -0.0107.
With `CCn1c(SCC(=O)NCCc2ccccc2)nc2c(c1=O)SC(C)C2` (centres undefined) the figure was -1.26; with `Cc1cc(/C=N\O)c(C)n1-c1ccncc1`, 0.562; with `Cc1ccc(CS(=O)(=O)Cc2ccc(C(=O)NCCCN3CCOCC3)o2)cc1`, -0.221.
`CCCCCCCCSc1nnc(CSc2nc3nc(C)cc(C)n3n2)o1`: the z-score is -0.0354.
With `COCCNC(=O)C1CC(=O)N(c2ccc(F)c(Cl)c2)C1` (centres undefined) the figure was 0.538; with `CC(C)NC(=O)c1ccc(CNC(=O)OCC(F)(F)F)cc1`, 0.123; with `Cc1ccc(NC(=O)CC2S/C(=N/N=C/c3c[nH]c4ccccc34)NC2=O)cc1` (centres undefined), -0.197.
With `Cc1cc(C)[n+]2n1C(=O)C(c1ccccc1)=C2[O-]` the figure was 2.57.
With `Cn1c(=O)c2c(SCc3ccccn3)nc(-c3ccccc3)nc2n(C)c1=O` the figure was -0.403.
Regarding `CCNC(=O)N1CCNC(=O)C1CC(=O)OC` (centres undefined), the z-score is -0.0425.
The figure for `COc1ccc(/C=N/Nc2cc(C)nc(NS(=O)(=O)c3ccc(C)cc3)n2)cc1` is -0.501.
Regarding `CCC(C)N(C(=O)CSc1nc(-c2ccccc2)cs1)C1CCS(=O)(=O)C1` (centres undefined), the z-score amounted to 0.927.
The compound `CN(C)S(=O)(=O)c1ccc(NC(=O)c2c(F)cccc2Cl)cc1` registered a z-score of -0.0238.
As for `O=C(O)C1C2C=CC3(O2)C1C(=O)N1c2ccccc2C2OCCC2C13` (centres undefined), the z-score stood at 0.326.
With `CCCSc1nc(C)c(CC(=O)O)c(=O)[nH]1` the figure was 0.00302.
